Results taken from PubChem BioAssay AID504466 (National Center for Advancing Translational Sciences (NCATS), 2011).
Out of some 330,000 compounds screened, about 4,200 (1.3%) were called active. The shares of active, inactive and inconclusive entries below differ from those in the screen. The call rests on the fitted dose curve; in most records, active means well fitted activation curve with a large enough effect; inconclusive means small, poorly fitted or top-dose-only effect; inactive means no such curve, though single readings can be large or run the other way. Potencies beside an inconclusive call are fits to weak or partial responses and may not hold up.

Assay: qHTS screen for small molecules that induce genotoxicity in human embryonic kidney (HEK293T) cells expressing luciferase-tagged ELG1; further: nearly all actives have a fitted effect of over 60% in size
Details: HEK293T ELG1-luciferase reporter, luminescence, 16 h; series mostly up to 46 µM
Summary of the method: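 Genotoxicity was scored as increased ELG1-luciferase reporter signal, measured by ONE-Glo luminescence (30 min, room temperature). Compound or vehicle exposure of the HEK293T reporter cells lasted 16 hr at 37°C.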
Potency means the concentration at half of the fitted maximal effect; tags describe the fitted curve by direction and shape.

Compound | Potency
N#Cc1cccc2cccc(S(=O)(=O)N3CCOCC3)c12 | inactive
Cc1cccc(C(=O)Nc2cccc(OCC(=O)O)c2)c1 | inactive
Cc1noc(C)c1COC(=O)c1ccccc1Oc1ccccc1 | inconclusive: 23.1 µM [activator, single point]
Cn1cccc1CNC(=O)Nc1ccc(Cl)cc1 | inconclusive: 11.6 µM [activator, partial curve, poor fit]
CC(C)NC(=O)NC(=O)COc1ccc(Br)cc1Br | active: 3.26 µM
O=C1c2cccc3c(N4CCCCC4)ccc(c23)C(=O)N1CCO | inconclusive: 11.6 µM [activator, partial curve, poor fit]
Cc1ccc(CS(=O)(=O)c2ccc(C(=O)N3CCN(c4ccccn4)CC3)cc2[N+](=O)[O-])cc1 | inactive
Cc1ccc(C2C(C(=O)c3cc4ccccc4o3)=C(O)C(=O)N2c2cc(C)on2)cc1 (stereo not drawn) | inactive
O=C(CNC(=O)c1ccc(F)cc1)c1ccccc1 | active: 8.2 µM
C/C(=N\Nc1nnc(-c2ccccc2)c(-c2ccccc2)n1)c1cccc([N+](=O)[O-])c1 | active: 20.6 µM
COc1ccc(-c2noc(COc3ccccc3OC)n2)cc1OC | inconclusive: 23.1 µM [activator, single point]
Cc1cc(C(=O)c2cnc(/N=C/N(C)C)s2)cc(C)c1O | inconclusive: 23.1 µM [activator, partial curve, poor fit]
CCn1c2ccccc2c2cc(/C=N/n3c(C)nnc3C)ccc21 | inconclusive: 14.1 µM [activator, single point]
Cc1c(Cl)cccc1NC(=O)NCc1cccnc1 | inactive
O=C(COC(=O)C1COc2ccccc2O1)NC1CCCCC1 (stereo not drawn) | inactive
NNC(=O)c1cccc(COc2ccc(Br)cc2)c1 | inconclusive: 0.517 µM [activator, full curve]
S=C(c1ccc(-c2cccc(Cl)c2)o1)N1CCCCC1 | inconclusive: 2.31 µM [activator, full curve]
CCn1cc(/C=C(\NC(=O)c2ccc(OC)c(OC)c2)C(=O)NCCN2CCOCC2)c2ccccc21 | inactive
COC(=O)c1cc(CN2C(=O)c3ccccc3C2=O)c(O)c([N+](=O)[O-])c1 | inactive
O=C(NCc1ccccc1)c1cc2ccccc2oc1=O | inconclusive: 18.3 µM [activator, single point]
CCn1cnc2sc(-c3ccccc3)cc2c1=O | active: 3.66 µM
CCOc1ccc(S(=O)(=O)N(CC(=O)N2CCC(C(N)=O)CC2)c2ccc(F)cc2)cc1 | inactive
Cc1cc(C)c2c(N)c(C(=O)Nc3ccccc3F)sc2n1 | inconclusive: 2.91 µM [activator, single point]
COc1cccc2sc(NNC(=O)C3=COCCO3)nc12 | inconclusive: 16.4 µM [activator, partial curve, poor fit]
Cc1ccnc(NC(=O)c2ccc(S(=O)(=O)N3CCCC3)cc2)c1 | inconclusive: 25.9 µM [activator, single point]

Compound | Potency
Cc1ccnc(NS(=O)(=O)c2ccc(NC(=O)C3COc4ccccc4O3)cc2)n1 (stereo not drawn) | inactive
CC1=NN(c2ccc(C(=O)O)cc2)C(=O)CC1 | inconclusive: 23.1 µM [activator, single point]
COC(=O)c1ccc(COc2ccc(-c3nnn(CC(=O)NC(C)(C)C)n3)cc2)cc1 | inconclusive: 18.4 µM [activator, single point]
CC1=NN(C(N)=S)C(=O)C1N=Nc1ccccc1 (stereo not drawn) | inconclusive: 25.9 µM [activator, partial curve, poor fit]
COc1cc(C2C(N3C(=O)c4ccccc4C3=O)C(=O)N2c2cccc(C)c2)cc(OC)c1OC (stereo not drawn) | inconclusive: 16.4 µM [activator, partial curve]
O/C(=C\c1ccc2ccccc2n1)c1ccc(O)cc1O | active: 2.59 µM
O=C(O)C1CC(c2ccccc2)=Nc2ccccc2S1 (stereo not drawn) | inconclusive: 23.1 µM [activator, single point]
Cc1ncoc1C(=O)Nc1ccccc1-c1ccccc1 | inactive
C[C@@H]1C[C@H](Nc2ccccc2)c2ccccc2N1C(=O)c1cccnc1 | inactive
O=C(N/N=C/c1ccc(Br)o1)c1ccc2c(c1)OCCO2 | inconclusive: 14.6 µM [activator, partial curve]
O=C(NC(=S)NCC1CCCO1)c1ccc(Br)o1 (stereo not drawn) | inconclusive: 16.4 µM [activator, partial curve, poor fit]
Cc1nc2cc(NC(=O)N3c4ccccc4CC3C)ccc2n1C (stereo not drawn) | inconclusive: 1.3 µM [activator, partial curve]
N/C(=N\OC(=O)c1ccccc1)c1cccnc1 | inconclusive: 20.6 µM [activator, single point]
Cc1ccc(-c2cc(N)nc(-c3ccccc3)c2)cc1 | inconclusive: 25.9 µM [activator, partial curve, poor fit]
CCCN1CCN(CCCNC(=O)c2ccc3nc(N4CCC(C)CC4)sc3c2)CC1 | inconclusive: 0.13 µM [activator, full curve]
O=C1c2ccccc2C(=O)c2cc(NC(=O)C3CC3)ccc21 | inconclusive: 5.8 µM [activator, partial curve]
CC(C)c1cccc(C(C)C)c1NC(=O)CN1CCCC1 | inactive
COc1cc([N+](=O)[O-])ccc1-c1ccc(/C=N/NC(=O)c2ccccc2O)o1 | inactive
O=C(Nc1ccc(F)cc1)NC1CCCCC1 | inconclusive: 11.6 µM [activator, partial curve]
Cc1ccc2c(CSc3nnc(N)s3)cc(=O)oc2c1 | inconclusive: 29.1 µM [activator, single point]
COc1nc(-c2ccccc2)ccc1-c1noc(-c2ccccc2F)n1 | inconclusive: 18.4 µM [activator, single point]
Cc1cc(C(=O)N/N=C/c2ccc3ccccc3c2)n[nH]1 | inconclusive: 25.9 µM [activator, partial curve, poor fit]
COc1cccc(-n2nnc3c(=O)n(Cc4cccc(C)c4)cnc32)c1 | inconclusive: 14.6 µM [activator, partial curve, poor fit]
CCOC(=O)c1c(C)[nH]c(C(=O)Nc2ccc3c(c2)OCO3)c1C | inconclusive: 3.66 µM [activator, partial curve]
CCOC(=O)c1c(NC(=O)COC(=O)c2cnccn2)sc(C)c1C | inconclusive: 6.51 µM [activator, partial curve, poor fit]

Compound | Potency
CCN(CC)c1ccc(-c2nc3cnccc3n2C)cc1 | inconclusive: 7.31 µM [activator, partial curve]
O=C(C#Cc1ccccc1)c1cccc([N+](=O)[O-])c1 | inactive
CN1CCN(CCC=C2c3ccccc3Sc3ccc(S(=O)(=O)N(C)C)cc32)CC1 | inconclusive: 16.4 µM [activator, single point]
Cc1ccc(-c2csc(/C=C3\SC(C)C(=O)N3CC(=O)Nc3ccccc3F)n2)cc1 (stereo not drawn) | inactive
COc1cccc(Nc2nc3ccccc3n3nnnc23)c1 | inconclusive: 13 µM [activator, partial curve, poor fit]
COc1ccc(C(=O)Nn2c(SCC(=O)N3CCC(C)CC3)nc3ccccc3c2=O)cc1 | inconclusive: 0.259 µM [activator, partial curve, poor fit]
Cc1ccc(C(=O)O/N=C(\N)c2ccccn2)cc1 | inconclusive: 0.0411 µM [activator, full curve, poor fit]
Cc1noc(C)c1-c1ccc2ncnc(NCC3CCCCN3C)c2c1 (stereo not drawn) | inconclusive: 13 µM [activator, partial curve]
COc1ccc(CN2CCN(C3CCC3)CC2CCO)cc1C (stereo not drawn) | inactive
O=C(COC(=O)c1cccc([N+](=O)[O-])c1)c1ccc2c(c1)OCO2 | active: 20.6 µM
COc1cccc(-c2nc3ccccc3s2)c1 | active: 2.06 µM
N#Cc1c(C(F)(F)F)cc(=O)n2c1[nH]c1ccccc12 | inactive
CC(/C=C/c1ccccc1)=N/NC(=O)CNC(=O)c1ccc2c(c1)OCO2 | inconclusive: 25.9 µM [activator, single point]
CSc1ccc(CN2CCN(C(=O)CC(C)C)CC2)cc1 | inactive
Cc1cc(=O)oc2cc(NC(=O)CCOc3ccccc3)ccc12 | inconclusive: 32.6 µM [activator, partial curve, poor fit]
O=C1CN(C(=O)CSc2ccccn2)c2ccccc2N1 | inactive
COc1ccc(F)cc1S(=O)(=O)n1cc(C)nc1-c1ccccc1 | inactive
CCCCn1c(CN2CCN(c3cccc(Cl)c3)CC2)nc2c1c(=O)n(C)c(=O)n2C | inconclusive: 29.1 µM [activator, partial curve, poor fit]
CC(C)Oc1ccc(C(=O)/C=C2/C(=O)Nc3ccccc32)cc1 | inconclusive: 20.6 µM [activator, partial curve, poor fit]
COc1ccc(-c2cc(C(=O)Nc3cc(C)ccc3O)no2)cc1 | active: 20.6 µM
O=c1c2ccccc2oc2ccc(Oc3ccccc3)cc12 | inconclusive: 2.31 µM [activator, full curve]
COc1ccc(C(C(=O)NC2CCCC2)N(C(=O)c2ccco2)c2cc3c(cc2C(C)=O)OCO3)cc1 (stereo not drawn) | inconclusive: 32.6 µM [activator, partial curve, poor fit]
CCOc1ccc(NC(=O)c2ccco2)cc1 | inconclusive: 1.78 µM [activator, full curve, poor fit]
